Experimental data taken from paper PMC4336329 (PLoS ONE, 2015).
Hit rate of the full screen: of about 310,000 compounds, about 14,000 (4.5%) showed an effect of 50% or more. Effects have a minus sign here. This is one part of the list. Where a SMILES comes first, the peptide text is derived from it. [ ]: non-standard residue; d: D form. The star is where a group is joined. Phe(4-Me) = Cc1ccc(C[CH](N)C(=O)O)cc1; Bz = O=C(c1ccccc1)*

Target: human ether-à-go-go-related gene (hERG) potassium channel (human, UniProt Q12809)
Sequence (Q12809 whole entry, looked up): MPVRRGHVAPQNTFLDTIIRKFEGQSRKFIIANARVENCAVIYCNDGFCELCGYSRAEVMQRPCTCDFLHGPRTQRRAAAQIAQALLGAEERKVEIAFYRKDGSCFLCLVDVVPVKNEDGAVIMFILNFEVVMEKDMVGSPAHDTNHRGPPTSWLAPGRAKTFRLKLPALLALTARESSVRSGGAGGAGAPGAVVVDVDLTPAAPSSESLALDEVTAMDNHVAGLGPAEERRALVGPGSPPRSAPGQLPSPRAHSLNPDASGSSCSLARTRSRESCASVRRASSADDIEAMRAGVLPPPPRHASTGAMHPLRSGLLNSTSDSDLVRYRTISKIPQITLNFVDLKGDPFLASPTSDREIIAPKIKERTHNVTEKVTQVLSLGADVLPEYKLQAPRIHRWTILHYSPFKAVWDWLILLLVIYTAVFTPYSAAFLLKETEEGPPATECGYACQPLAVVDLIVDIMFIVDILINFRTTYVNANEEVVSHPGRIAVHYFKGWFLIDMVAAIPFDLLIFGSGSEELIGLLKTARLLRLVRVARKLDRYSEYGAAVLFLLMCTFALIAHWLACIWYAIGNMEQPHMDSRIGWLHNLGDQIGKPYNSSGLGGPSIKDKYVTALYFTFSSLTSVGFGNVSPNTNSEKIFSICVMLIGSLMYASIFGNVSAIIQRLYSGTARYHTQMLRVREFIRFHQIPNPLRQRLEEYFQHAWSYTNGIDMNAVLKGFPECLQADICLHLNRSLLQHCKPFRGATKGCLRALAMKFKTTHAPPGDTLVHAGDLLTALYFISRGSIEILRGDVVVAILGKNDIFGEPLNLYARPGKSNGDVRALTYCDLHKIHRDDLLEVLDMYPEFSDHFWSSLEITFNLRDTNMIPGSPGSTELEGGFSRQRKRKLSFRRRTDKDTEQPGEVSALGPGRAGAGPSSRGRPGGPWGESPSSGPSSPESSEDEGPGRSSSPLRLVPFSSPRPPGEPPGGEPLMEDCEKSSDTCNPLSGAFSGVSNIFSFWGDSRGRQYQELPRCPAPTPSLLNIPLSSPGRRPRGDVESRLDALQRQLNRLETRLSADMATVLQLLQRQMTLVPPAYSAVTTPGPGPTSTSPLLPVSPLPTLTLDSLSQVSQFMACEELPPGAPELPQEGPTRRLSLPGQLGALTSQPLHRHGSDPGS
Experiment: primary screen, population patch clamp on CHO cells stably expressing hERG
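Further: peak tail current of the secondary pulse compared with the same well before compound.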

SMILES | hERG current change (%, negative = inhibition) at 10uM [%]
N#C/C(=C\c1ccc(OCC(N)=O)cc1)S(=O)(=O)c1ccccc1 | 11.3
Cc1nnc(N2CCC(C(=O)NC3CCC(C)CC3)CC2)c2nn(-c3ccc(Cl)cc3)c(C)c12 (stereo not drawn) | 18.8
COC(=O)CC1SCCNC1=O (stereo not drawn) | 9.08
O=C(COc1ccccc1C(=O)c1cnn(-c2ccccc2)c1)Nc1ccc2ccccc2c1 | 10.1
CN1C(=O)C(C)(C)c2cc(S(=O)(=O)N(C)Cc3ccccc3)ccc21 | -2.33
COCCN1CCC(CNCc2cn(-c3cc(C)ccc3C)nc2-c2ccccc2)C1 (stereo not drawn) | -18
COc1ccc(OC)c(/C=N/NC(=O)CC(=O)NC2CCCCC2)c1 | 6.32
Cc1cc(O)c(/C=N/Nc2ccc(F)cc2)c(=O)o1 | 8.69
NNC(=O)c1cc2ccccc2cc1O | 3.78
Cc1cnc(C(=O)OCC(=O)Nc2cccc(S(=O)(=O)N3CCCCC3)c2)cn1 | -1.78
Cc1ccc(C(=O)OCC(=O)NCCNC(=O)COC(=O)c2ccc(C)o2)o1 | 22.4
Cc1cc(OCC[N+]2(C)CCCCC2)nc2ccccc12.[I-] | 12.7
CCC(C)Oc1cccc(OCCCCN2C(=O)NC(C)(C)C2=O)c1 (stereo not drawn) | -17.8
c1cncc(-c2nc(NCCCn3ccnc3)c3ccccc3n2)c1 | -53.5
O=C(NCc1ccccc1Cl)c1ccc2nc[nH]c2c1 | 5.08
CC(=O)Nc1ccc(S(=O)(=O)N(C)CC(=O)Nc2ccc(F)c(F)c2F)cc1 | -6.17
Cc1ccc(COC(=O)c2cc(S(=O)(=O)N3CCOCC3)ccc2C)cc1 | -2.75
CCc1ccc(/C=N/NC(=O)c2nnn(-c3nonc3N)c2CN2CCc3ccccc32)cc1 | 10.3
Cc1ccccc1-c1ccnc2[nH]n(-c3ccccc3)c(=O)c12 | 21
O=c1[nH]c(O)c(C=NCCc2ccccc2)c(=O)[nH]1 | 16.2
Cc1ccc(CC(NC(=O)c2ccccc2)C(=O)N2CCCC2C(=O)O)cc1 (stereo not drawn) (Bz-[Phe(4-Me)]-Pro-OH; configuration not given here) | -11.8
CCc1ccc(NC(=O)C(C)n2nc(C)c([N+](=O)[O-])c2C)cc1 (stereo not drawn) | 9.14
Cn1c(N)c(S(=O)(=O)N2CCN(C(=O)c3ccco3)CC2)c(=O)n(C)c1=O | 18.4
C/C(=C\COc1cc(=O)[nH]c2ccccc12)CCC(O)C(C)(C)O (stereo not drawn) | 4.58
